# The list shows a part of the results.
# B1: AT1G73650(15) (Arabidopsis thaliana), F4HRY1 (protein)
# chain: MGTVLDSHFLALTAIVTVIYQFIFFVITALFKFDQVTDFAGSTNFVILAVLTLVLKASWHFRQIVLTLLVVVWGLRLGIFLLMETRILQWGEDRRFDEQRGNIVRLIIFWTLQAVWVWTVSLPLTLVNASDGGGSLKPADVIGWTMETWVFGFLIEAAADQQKLSFKNSPENRGKWCDVGVWKYSRHPNYFGEMETLLWWGIFVAASPVLEGAEYLVIFGPLFLTLLLLFVSGIPLLEASADKKHGNSGAYRSYKKTTSPLILFPRGVYGNLPGWFKTVFLFEFPFYSRNLPQEGRLQNSKEKEVKDD
# Legend:
# Assay in all cases: glycan array binding signal (z-score within array); higher = stronger binding
# Conditions in all cases: glycan notation: IUPAC condensed, linker removed
# [1] = biological target: Fuc(a1-2)[GalNAc(b1-3)]Gal
# How it was run: (§1)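 The binding signal is a Z-score computed within each array and averaged over linkers. Arrays of the same protein sequence at different concentrations or buffers were also averaged together. Data originate from 3228 arrays in the Consortium for Functional Glycomics database, kept only where the protein sequence was available.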
# Fuc(a1-3)GlcNAc = biological target: Fuc(a1-3)GlcNAc
# How it was run: as §1
# [2] = biological target: Fuc(a1-3)[Gal(b1-4)]Glc6S
# How it was run: as §1
# [3] = biological target: Fuc(a1-3)[Gal(b1-4)]GlcNAc
# How it was run: as §1
# [4] = biological target: Fuc(a1-3)[Gal(b1-4)]GlcNAc(b1-2)Man
# How it was run: as §1
# [5] = biological target: Fuc(a1-3)[Gal(b1-4)]GlcNAc(b1-2)Man(a1-3)[Fuc(a1-3)[Gal(b1-4)]GlcNAc(b1-2)Man(a1-6)]Man(b1-4)GlcNAc(b1-4)GlcNAc
# How it was run: as §1
# [6] = biological target: Fuc(a1-3)[Gal(b1-4)]GlcNAc(b1-2)Man(a1-3)[Fuc(a1-3)[Gal(b1-4)]GlcNAc(b1-2)Man(a1-6)]Man(b1-4)GlcNAc(b1-4)[Fuc(a1-6)]GlcNAc
# How it was run: as §1
# [7] = biological target: Fuc(a1-3)[Gal(b1-4)]GlcNAc(b1-3)Gal(b1-3)[Fuc(a1-4)]GlcNAc
# How it was run: as §1
# [8] = biological target: Fuc(a1-3)[Gal(b1-4)]GlcNAc(b1-3)Gal(b1-4)[Fuc(a1-3)]GlcNAc
# How it was run: as §1
# [9] = biological target: Fuc(a1-3)[Gal(b1-4)]GlcNAc(b1-3)Gal(b1-4)[Fuc(a1-3)]GlcNAc(b1-3)Gal(b1-4)[Fuc(a1-3)]GlcNAc
# How it was run: as §1
# [10] = biological target: Fuc(a1-3)[Gal(b1-4)]GlcNAc(b1-3)GalNAc
# How it was run: as §1
# [11] = biological target: Fuc(a1-3)[Gal(b1-4)]GlcNAc(b1-6)GalNAc
# How it was run: as §1
# [12] = biological target: Fuc(a1-3)[Gal(b1-4)]GlcNAc(b1-6)[Gal(b1-3)GlcNAc(b1-3)]Gal(b1-4)Glc
# How it was run: as §1
# [13] = biological target: Fuc(a1-3)[Gal(b1-4)]GlcNAc6S
# How it was run: as §1
# [14] = biological target: Fuc(a1-3)[Gal3S(b1-4)]Glc
# How it was run: as §1
# [15] = biological target: Fuc(a1-3)[Gal3S(b1-4)]GlcNAc
# How it was run: as §1
# [16] = biological target: Fuc(a1-3)[Gal3S(b1-4)]GlcNAc6S
# How it was run: as §1
# [17] = biological target: Fuc(a1-3)[GalNAc(b1-4)]GlcNAc
# How it was run: as §1
# [18] = biological target: Fuc(a1-3)[GalNAc(b1-4)]GlcNAc6S
# How it was run: as §1
# Fuc(a1-4)GlcNAc = biological target: Fuc(a1-4)GlcNAc
# How it was run: as §1
# Fuc(b1-3)GlcNAc = biological target: Fuc(b1-3)GlcNAc
# How it was run: as §1
# Gal(a1-2)Gal = biological target: Gal(a1-2)Gal
# How it was run: as §1
# Gal(a1-3)Gal = biological target: Gal(a1-3)Gal
# How it was run: as §1
# Gal(a1-3)Gal(b1-3)GlcNAc = biological target: Gal(a1-3)Gal(b1-3)GlcNAc
# How it was run: as §1
# [19] = biological target: Gal(a1-3)Gal(b1-3)GlcNAc(b1-2)Man
# How it was run: as §1
# [20] = biological target: Gal(a1-3)Gal(b1-3)GlcNAc(b1-2)Man(a1-3)[Gal(a1-3)Gal(b1-3)GlcNAc(b1-2)Man(a1-6)]Man(b1-4)GlcNAc(b1-4)GlcNAc
# How it was run: as §1
# [21] = biological target: Gal(a1-3)Gal(b1-3)GlcNAc(b1-3)GalNAc
# How it was run: as §1
# [22] = biological target: Gal(a1-3)Gal(b1-3)GlcNAc(b1-6)GalNAc
# How it was run: as §1
# [23] = biological target: Gal(a1-3)Gal(b1-3)[Fuc(a1-4)]GlcNAc(b1-2)Man(a1-3)[Gal(a1-3)Gal(b1-3)[Fuc(a1-4)]GlcNAc(b1-2)Man(a1-6)]Man(b1-4)GlcNAc(b1-4)GlcNAc
# How it was run: as §1
# Gal(a1-3)Gal(b1-4)Glc = biological target: Gal(a1-3)Gal(b1-4)Glc
# How it was run: as §1
# Gal(a1-3)Gal(b1-4)GlcNAc = biological target: Gal(a1-3)Gal(b1-4)GlcNAc
# How it was run: as §1
# [24] = biological target: Gal(a1-3)Gal(b1-4)GlcNAc(b1-2)Man
# How it was run: as §1
# [25] = biological target: Gal(a1-3)Gal(b1-4)GlcNAc(b1-2)Man(a1-3)[Gal(a1-3)Gal(b1-4)GlcNAc(b1-2)Man(a1-6)]Man(b1-4)GlcNAc(b1-4)GlcNAc
# How it was run: as §1
# [26] = biological target: Gal(a1-3)Gal(b1-4)GlcNAc(b1-3)GalNAc
# How it was run: as §1
# [27] = biological target: Gal(a1-3)Gal(b1-4)GlcNAc(b1-6)GalNAc
# How it was run: as §1
# [28] = biological target: Gal(a1-3)Gal(b1-4)[Fuc(a1-3)]GlcNAc
# How it was run: as §1
# [29] = biological target: Gal(a1-3)Gal(b1-4)[Fuc(a1-3)]GlcNAc(b1-2)Man(a1-3)[Gal(a1-3)Gal(b1-4)[Fuc(a1-3)]GlcNAc(b1-2)Man(a1-6)]Man(b1-4)GlcNAc(b1-4)GlcNAc
# How it was run: as §1
binder,measurement,setting,value
B1,glycan array binding signal (z-score),[1],-0.563
same,glycan array binding signal (z-score),Fuc(a1-3)GlcNAc,0.234
same,glycan array binding signal (z-score),[2],2.65
same,glycan array binding signal (z-score),[3],-0.444
same,glycan array binding signal (z-score),[4],-0.059
same,glycan array binding signal (z-score),[5],1.74
same,glycan array binding signal (z-score),[6],-0.573
same,glycan array binding signal (z-score),[7],-0.557
same,glycan array binding signal (z-score),[8],-0.135
same,glycan array binding signal (z-score),[9],-0.45
same,glycan array binding signal (z-score),[10],0.945
same,glycan array binding signal (z-score),[11],0.964
same,glycan array binding signal (z-score),[12],-0.111
same,glycan array binding signal (z-score),[13],-0.428
same,glycan array binding signal (z-score),[14],-0.238
same,glycan array binding signal (z-score),[15],3.17
same,glycan array binding signal (z-score),[16],-0.142
same,glycan array binding signal (z-score),[17],1.23
same,glycan array binding signal (z-score),[18],-0.217
same,glycan array binding signal (z-score),Fuc(a1-4)GlcNAc,0.957
same,glycan array binding signal (z-score),Fuc(b1-3)GlcNAc,-0.406
same,glycan array binding signal (z-score),Gal(a1-2)Gal,-0.699
same,glycan array binding signal (z-score),Gal(a1-3)Gal,0.015
same,glycan array binding signal (z-score),Gal(a1-3)Gal(b1-3)GlcNAc,0.064
same,glycan array binding signal (z-score),[19],-0.474
same,glycan array binding signal (z-score),[20],1.53
same,glycan array binding signal (z-score),[21],-0.239
same,glycan array binding signal (z-score),[22],-0.002
same,glycan array binding signal (z-score),[23],-0.118
same,glycan array binding signal (z-score),Gal(a1-3)Gal(b1-4)Glc,3.4
same,glycan array binding signal (z-score),Gal(a1-3)Gal(b1-4)GlcNAc,-0.242
same,glycan array binding signal (z-score),[24],-0.493
same,glycan array binding signal (z-score),[25],-0.128
same,glycan array binding signal (z-score),[26],-0.374
same,glycan array binding signal (z-score),[27],-0.542
same,glycan array binding signal (z-score),[28],-0.487
same,glycan array binding signal (z-score),[29],-0.086
